{"source": "the RNAGym collection of RNA variant scans (doi:10.7554/elife.90254)", "parents": {"B1": {"name": "LINE1-mini (parent)", "chain": "GGCAGAGCUCAACACAGCGUGGCAAAGUGGCUGUGGCUAGACUGCC"}}, "note": "Read counts are not given, so values of variants with three or more changes are uncertain.", "data": [{"variants_of": "B1", "assay": "self-cleavage, relative activity (ratio to wild type); higher = more cleavage; in vitro, sequencing; the parent is a self-cleaving ribozyme", "values": [{"variant": "GGCCGAGCUCAACACAGCGUGGCAAAGUGGCUGUGGCUAAACGGCC", "note": "[A4C G40A U43G]", "self-cleavage": 0.11}, {"variant": "GGCCGAGCUCAACACAGCGCGGCAAAGUGGCUGGGGCUAGACUGCC", "note": "[A4C U20C U34G]", "self-cleavage": 0.03}, {"variant": "GGCCGAGCACAACACAGAGUGGCAAAGUGGCUGUGGUUAGACUGCC", "note": "[A4C U9A C18A C37U]", "self-cleavage": 1.14}, {"variant": "GGCCGAGCUCAACACAGCGUGACAAAGUGGCUGGGGCUAGACUGCC", "note": "[A4C G22A U34G]", "self-cleavage": 0.06}, {"variant": "GGCCUAGCUCAACACAGCGUGGCAAAGUGACUGUGGCUAAACUGCC", "note": "[A4C G5U G30A G40A]", "self-cleavage": 0.23}, {"variant": "GGCCGAUCUCAUCACAGCGUGGCAAAGUGAAUGUGGCAAGACUGCC", "note": "[A4C G7U A12U G30A C31A U38A]", "self-cleavage": 1.91}, {"variant": "GGCCGAGCUCAACACAGCGUGGCAAAGUGGCCGAGGCUAGACUGCC", "note": "[A4C U32C U34A]", "self-cleavage": 0.09}, {"variant": "GGCCGAGCCCCACACAGCGUGCCAACGUGGCUGUGGCUAGACUGCC", "note": "[A4C U9C A11C G22C A26C]", "self-cleavage": 0.03}, {"variant": "GGCGGAGCUCAGCGCAGCGUGGCAUAGUGGCUGUGCCUAGACUGCC", "note": "[A4G A12G A14G A25U G36C]", "self-cleavage": 0.01}, {"variant": "GGCGGGGCUCAACACAGCGUGGCAAAGUGGCUGUGGCUACACUGCU", "note": "[A4G A6G G40C C46U]", "self-cleavage": 0.03}, {"variant": "GGCCGAUCUCAACAUAGCUUGGCAAAGUGGCUGUGGCUAGACUGCC", "note": "[A4C G7U C15U G19U]", "self-cleavage": 0.38}, {"variant": "GGCCGAGCCCAACACAGCGUGGCAAAGUGGCUGUGGCUAGACUACC", "note": "[A4C U9C G44A]", "self-cleavage": 0.03}, {"variant": "GGCCCAGCUCAACACAGCGUGGCACCGUGGCUGUGGCUAUACUGCU", "note": "[A4C G5C A25C A26C G40U C46U]", "self-cleavage": 0.11}, {"variant": "GGCCGAGCACAACACAGUGUGGCAAAGAGGCUUUGGCUAGACUGCC", "note": "[A4C U9A C18U U28A G33U]", "self-cleavage": 0.09}, {"variant": "GGCCCAGCUCAACACAGCGUGGCAAAGUGGCUGUGGAUUGACUGCC", "note": "[A4C G5C C37A A39U]", "self-cleavage": 0.11}, {"variant": "GGCCAAGCUCAUCACAGCGUGGCAAAGUGGCUGUGGCUAGACUGCC", "note": "[A4C G5A A12U]", "self-cleavage": 0.14}, {"variant": "GGCCUAGCUCAACACAGCGAGGCAAAGUGGCUGUGGCUAGACUGCC", "note": "[A4C G5U U20A]", "self-cleavage": 0.06}, {"variant": "GGCGGCGCUCAACACAGCGUUGCAAAGUGGCUGUGGCUAGACUGCC", "note": "[A4G A6C G21U]", "self-cleavage": 0.38}, {"variant": "GGCCGAGCUCAACACAGCGUGGCAAAGUGGCUGUGGUUAGGCUGCC", "note": "[A4C C37U A41G]", "self-cleavage": 0.12}, {"variant": "GGCCGAGCUCAACACAGCGUGACAAAGUGGCUGUGGCUAGACUCCC", "note": "[A4C G22A G44C]", "self-cleavage": 0.05}, {"variant": "GGCCUAGCUGAACACAGCGUGGCAGAGUGGCUGUGCCUAGACUGCC", "note": "[A4C G5U C10G A25G G36C]", "self-cleavage": 0.03}, {"variant": "GGCGGUGCUCAGCACAGCGAGUCAAAGUGGCUGUGGUUAGACUGCC", "note": "[A4G A6U A12G U20A G22U C37U]", "self-cleavage": 0.02}, {"variant": "GGCCGACCUCAACACAGCGUGGAAAAGUGGCUGUGGCAAGACUGCC", "note": "[A4C G7C C23A U38A]", "self-cleavage": 0.14}, {"variant": "GGCCGAGCUCAACACAGCGUGGCAAAGUGGCUGUAACUAGACUGCC", "note": "[A4C G35A G36A]", "self-cleavage": 0.04}, {"variant": "GGCGGAGCUCGACACAGCGUUGCAAAGUGGCUGGGGCUAGACUGCC", "note": "[A4G A11G G21U U34G]", "self-cleavage": 0.02}, {"variant": "GGCCCAGCUAAACACAGCGUGGCAAAGUGGCUGUGGCUAGACUGCC", "note": "[A4C G5C C10A]", "self-cleavage": 0.03}, {"variant": "GGCGGAGCUCUUCCCAGCGUGGCAAAUUGGCUGUGGCUAGACUGCC", "note": "[A4G A11U A12U A14C G27U]", "self-cleavage": 0.01}, {"variant": "GGCCGAGCUCAACAGAGCAUGGCAAAGUGGCUGUGGCUAGACUGCC", "note": "[A4C C15G G19A]", "self-cleavage": 0.03}, {"variant": "GGCCGAGCUCAACAUAGCGUGUCAAAGUGGCUGUGGUUAGUCUGCC", "note": "[A4C C15U G22U C37U A41U]", "self-cleavage": 0.09}, {"variant": "GGCGGUGCCCAACACAGCGUGGCAAAGUGGUUGUGGCUAGACUGCC", "note": "[A4G A6U U9C C31U]", "self-cleavage": 0.03}, {"variant": "GGCGGCGCUCAACACAGCGUGGCAAAGUGGCAGUGGCUGGACUACC", "note": "[A4G A6C U32A A39G G44A]", "self-cleavage": 0.13}, {"variant": "GGCCCAGCUCAACACAGCGUGGCAAAGUGGCUGUGGCAAGACUGCC", "note": "[A4C G5C U38A]", "self-cleavage": 0.09}, {"variant": "GGCCAAGCUCAACACAGCGUGGCAAACUGGCUGGGGCUAGACUGCC", "note": "[A4C G5A G27C U34G]", "self-cleavage": 0.14}, {"variant": "GGCCGAGCUCAACACAACGUGGCAAAGUGGCUGUGGCAAGACUGCC", "note": "[A4C G17A U38A]", "self-cleavage": 0.02}, {"variant": "GGCCGAGCUCAACACAGCGUGGCAAAAUGUGUGUGGGUAGACUGCC", "note": "[A4C G27A G30U C31G C37G]", "self-cleavage": 0}, {"variant": "GGCGGGGCUCAACACUGCGUGGCAAAGUGUCUGUGGCCAGACUGCC", "note": "[A4G A6G A16U G30U U38C]", "self-cleavage": 0}, {"variant": "GGCCGAGCUGAACGCAGCGGGGCAAAGUGGCUGUGGCUAGACCGCC", "note": "[A4C C10G A14G U20G U43C]", "self-cleavage": 0}, {"variant": "GGCCGAGCUCAACACAGCGUGGCAAAGUGGCUGUGGCUAGAUCGCC", "note": "[A4C C42U U43C]", "self-cleavage": 0.17}, {"variant": "GGCCGAACUGUACACAGCGUGUCAAAGUGGCUGUGGGUAGACUGCC", "note": "[A4C G7A C10G A11U G22U C37G]", "self-cleavage": 0.01}, {"variant": "GGCCGAGCUCAACACAGCCUGGCAAAGUGGCUGUGCUUAGACUGCC", "note": "[A4C G19C G36C C37U]", "self-cleavage": 0.03}, {"variant": "GGCCGAGCUCAACACAGCGUGGCAAAGUGGCAGUGGAUAGAAUGCC", "note": "[A4C U32A C37A C42A]", "self-cleavage": 0.07}, {"variant": "GGCCGAGCUCAACACAGCGUGUAAAAGUGGCUGUGGCUAGACUGCC", "note": "[A4C G22U C23A]", "self-cleavage": 0.08}, {"variant": "GGCGGGGCACAACACAGCGUGGCAAACCGGCUGUGGCUAGACUGUC", "note": "[A4G A6G U9A G27C U28C C45U]", "self-cleavage": 0.08}, {"variant": "GGCCGAGCUCAACACAGCGUGGCAAAGUGCAAGUGGCUAGACUGCC", "note": "[A4C G30C C31A U32A]", "self-cleavage": 0.24}, {"variant": "GGCGGGGCUCACUACAGCGUGGCAAAGUGGCUUUGGCUAGAGUGCC", "note": "[A4G A6G A12C C13U G33U C42G]", "self-cleavage": 0.05}, {"variant": "GGCGGAGCUCACCACAGCGUGUCAAAGAGGCUGUGGCUAGACUGCC", "note": "[A4G A12C G22U U28A]", "self-cleavage": 0.02}, {"variant": "GGCGGAGCUCGACACAGCGUGGCAAAGUGGCUGUGGCUAGACUGCG", "note": "[A4G A11G C46G]", "self-cleavage": 0.03}, {"variant": "GGCCGAGCUCAACACAGCGUGGCAAAGUGGGUGUCGACAGACUGUC", "note": "[A4C C31G G35C C37A U38C C45U]", "self-cleavage": 0.04}, {"variant": "GGCGGAGCUCUACACAGCGUGGGAAAGUGGCUGUGGCUAGACUGCC", "note": "[A4G A11U C23G]", "self-cleavage": 0.01}, {"variant": "GGCCGAGCUCAACAGCGCGUGGCAAAGUGGCUGUGGCUAGACAGCC", "note": "[A4C C15G A16C U43A]", "self-cleavage": 0.01}, {"variant": "GGCGGUGGUCAACACUGCGUGGCAAAGUGGCUGUGGCUAGACUGCC", "note": "[A4G A6U C8G A16U]", "self-cleavage": 0.02}, {"variant": "GGCCGAGCUCAACACAGCGAGGCAAAGUGGCUGUGGCUUGACUGAC", "note": "[A4C U20A A39U C45A]", "self-cleavage": 0.02}, {"variant": "GGCCGAGCUCAACACAGCUUGGCAAAGUGGCUCUGGCUAGACUGCC", "note": "[A4C G19U G33C]", "self-cleavage": 0.1}, {"variant": "GGCCGAGCUCAACACAGCGUGGCAAAGUGGCUGUUGCGAGACUACC", "note": "[A4C G35U U38G G44A]", "self-cleavage": 0.03}, {"variant": "GGCCGAGCUCAACACAGCGUAACAAAGUGGCUGUGGCUAGACAGCC", "note": "[A4C G21A G22A U43A]", "self-cleavage": 0.5}, {"variant": "GGCCGAGCUCAACACAGCGUUGCAAAGUGGCUGUGGCUAGAAUGCC", "note": "[A4C G21U C42A]", "self-cleavage": 0.09}]}]}
